In patent US20220127332A1 (CURA THERAPEUTICS, published 2022):

Target: T1, active TGFβ1 (human, UniProt P01137 partial chain)
T1 construct: mature; also called TGFb1; human active TGFβ1
Experiment: blocking of active TGFβ1 (1 ng/mL) in solution, 30 min in PBS; free TGFβ1 by ELISA

Sequence of active TGFβ1 (P01137 279-390 limits assumed): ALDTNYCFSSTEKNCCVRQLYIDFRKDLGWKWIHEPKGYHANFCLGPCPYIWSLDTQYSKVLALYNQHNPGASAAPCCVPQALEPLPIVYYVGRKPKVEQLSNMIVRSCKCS

- IC50: 9 pM
B1: bFISTv3 (bivalent FIST; fusion of an IL-2 polypeptide, a first sTBRII receptor polypeptide and a second sTBRII receptor polypeptide) (other)
chain: [omitted - about 150 residues]KSDVEMEAQKGEMICVTCNRTAHPLKHVNNDMIVTDNNGAVKLPQLCKFCDVRFSTCDNQKSCMSNCSITSICEKPQEVCVAVWRKNDENITLETVCHDPKLTYHGFTLEDAASPKCVMKEKKKPGETFFMCSCSSDECNDNIIFIPPHVQKSVNNDMIVTDNNGAVKLPQLCKFCDVRFSTCDNQKSCMSNCSITSICEKPHEVCVAVWRKNDENITLETVCHDPKLTYHGFTLEDAASPKCVMKEKKKPGETFFMCSCSADECNDNIIFSEDYNTSNPD
